The values that follow come from ChEMBL document CHEMBL4888484, “Replenishing the malaria drug discovery pipeline: Screening and hit evaluation of the MMV Hit Generation Library 1 (HGL1) against asexual blood stage Plasmodium falciparum ,using a nano luciferase reporter read-out” (2022).

The campaign covered roughly 150,000 compounds. About 540 (0.36%) showed an effect of 50% or more. Some of the results follow.

This assay has as its system Plasmodium falciparum. The assay can be described thus: Primary screen in NF54 nanoGlo assay, in single point, at 2uM, 72h; a lower Z score goes with more inhibition. As to conditions: timepoint 72 hour. Format: functional, Erythrocyte.
Turning to `CC(NC(=O)C1COCCO1)c1cccc(-n2cccn2)c1` (stereo not given), the % Inhibition (commonly the relative decrease from the control value, in per cent) was -18% and the Z score came out at 3.59.
As for `O=C1O[C@@H]2C[C@H]3C[C@@H]2[C@@H]1[C@H]3C(=O)Nc1cccc(C(=O)N2CCN(c3ccccc3F)CC2)c1`, the “% Inhibition” value is recorded as -6% and the Z score is reported as 1.16.
As for `N#CCCN1CC[C@H](OCCCc2ccccc2)C1`, the “% Inhibition” value is given as -5% and the Z score is recorded as 0.64.
For `Cc1ccsc1C(=O)N1CCC[C@H]1c1ccc2c(c1)OCCCO2`, in that order: 1% and -0.07.
Consider `C[C@H](NCc1cc(F)c(O)c(F)c1)c1ccccc1N1CCOCC1`, for which the “% Inhibition” value came to 10% and the Z score is -1.14.
Regarding `CC1(CO)CCCC1NCc1cnc(N2CCOCC2)nc1` (stereo not given), the “% Inhibition” value amounted to 33% and the Z score is recorded as -0.35.
Regarding `CC(=O)c1ccc(NC(=O)c2cc3n(n2)CCCO3)cc1`, the “% Inhibition” value was -7% and the Z score is recorded as 1.13.
For the compound `COc1cccc(-c2nc(C3CCN(C(=O)c4cccc(OC)c4OC)CC3)no2)c1`, the “% Inhibition” value is -9% and the Z score worked out at 1.14.
Regarding `O=C(Nc1nc2cc3c(cc2s1)OCCO3)C1CCCCC1`, the “% Inhibition” value is given as -6% and the Z score was determined as 0.9.
For `CN(C(=O)c1c(F)c(F)cc(F)c1F)c1ccnn1C`, in that order: -18% and 1.86.
As for `Cn1cc(CCC(=O)N2CC3(CCCC3)c3cccc(Cl)c32)cn1`, the “% Inhibition” value is on record as -4% and the Z score turned out to be 0.69.
For `O=C1CCCN1CCC(=O)N1CCO[C@@H](Cc2ccccc2Cl)C1`, in that order: -10% and 1.45.
On to `CN(C(=O)[C@H]1CCCOC1)c1ccnn1C`, for which the “% Inhibition” value is -4% and the Z score was 0.62.
With `Cc1nnsc1CNC(=O)[C@H](O)c1ccccc1Cl`, the “% Inhibition” value is on record as -2% and the Z score worked out at 0.48.
Consider `COc1ccccc1CN1CCC[C@H]1c1nc(-c2ccc(F)cn2)no1`, for which the “% Inhibition” value turned out to be 11% and the Z score is reported as -1.24.
As to `Cc1ncsc1CCN(C)Cc1ccc(-c2ccccc2C#N)o1`, the “% Inhibition” value is listed as -14% and the Z score is recorded as 1.32.
Turning to `Cc1nnnn1CCOc1cc(F)cc(Br)c1`, the “% Inhibition” value was determined as 2% and the Z score was -0.15.
For `Cc1ccc(-c2ncco2)cc1NC(=O)N[C@H](C(N)=O)C(C)(C)C` the same measures were -2% and 0.41.
Consider `Cc1cc(C(=O)N(C)Cc2nccn2C)cc(O)n1`, for which the “% Inhibition” value was -2% and the Z score worked out at 0.31.
Regarding `N#Cc1nc(NC(=O)Cc2cccc(F)c2)[nH]c1C#N`, the “% Inhibition” value is -4% and the Z score was 0.38.
For `CCc1cc(C(=O)N2[C@@H]3CC[C@H]2C[C@@H](c2ccc(OC)cc2)C3)ccn1`, in that order: -12% and 1.49.
With `c1cc2cc(-c3ccc(CN4CCCC4)cn3)ccc2[nH]1`, the “% Inhibition” value is on record as -1% and the Z score was determined as 0.18.
For the compound `COc1ccccc1OCC(=O)N(Cc1ccccn1)c1nc2c(OC)ccc(C)c2s1`, the “% Inhibition” value was -1% and the Z score came out at 0.24.
For `CS(=O)(=O)c1cccc(OCCN2CCCc3c(C(N)=O)cccc32)c1`, the “% Inhibition” value is -10% and the Z score amounted to 1.04.
Regarding `COC(=O)c1cc(N(C)C)nc(C)c1C(=O)OC`, the “% Inhibition” value is recorded as -9% and the Z score worked out at 1.87.
For `CCN(CC)c1ccc2c(c1)CCCN2`, in that order: 1% and -0.09.
In the case of `Cc1nc2nc(-c3ccc(C(C)(C)C)cc3)nn2c(C)c1CC(=O)N1CCCCCC1`, the “% Inhibition” value is recorded as -4% and the Z score worked out at 0.65.
Consider `CCCn1ncnc1[C@H](C)Nc1cc(-c2ccccc2F)nc2ccnn12`, for which the “% Inhibition” value was -16% and the Z score was determined as 2.45.
For the compound `CC(C)(C)CCN1CC2(C1)CN(C(=O)Nc1ccccc1)C[C@@H]1COCCN12`, the “% Inhibition” value is listed as 35% and the Z score is on record as -3.96.
Regarding `Cc1ccc(C(=O)NC[C@](C)(O)C(F)(F)F)c(=O)[nH]1`, the “% Inhibition” value was -9% and the Z score is given as 1.48.
For `O=C(c1ccc(F)c(F)c1)N1C2CCC1CC(n1nccn1)C2` (stereo not given), in that order: -8% and 1.51.
On to `CN(C)C(=O)N1CCC(CNC(=O)CC(C)(C)C)CC1`, for which the “% Inhibition” value was -3% and the Z score worked out at 0.36.
Regarding `Cc1nnc(Cn2nnc(Cc3ccc(Cl)c(Cl)c3)n2)o1`, the “% Inhibition” value was -3% and the Z score came out at 0.38.
Regarding `CC1CCN(C(=O)C(=O)NC2CC2)C2CCCCC12` (stereo not given), the “% Inhibition” value is given as -9% and the Z score worked out at 1.47.
In the case of `Brc1ccc(CN2CCC(CC3CC3)(c3noc(C4CCOCC4)n3)CC2)o1`, the “% Inhibition” value was -12% and the Z score stood at 1.63.
As to `Cc1ccc(CN(C)C(=O)[C@H]2CCN(C3CCCCC3)C2)o1`, the “% Inhibition” value was determined as 1% and the Z score is -0.2.
As for `Cc1nn(C)c(C)c1CCC(=O)N1CCN(C2Cc3ccccc3C2)CC1`, the “% Inhibition” value is -20% and the Z score worked out at 2.59.
As for `CCc1nc(CN2CCC[C@H]2c2cc(OC)ccc2OC)n[nH]1`, the “% Inhibition” value is -10% and the Z score is listed as 1.08.
Turning to `CC1CC(C(=O)O)CN(C(=O)Nc2nnc(-c3c(F)cccc3F)s2)C1` (stereo not given), the “% Inhibition” value is -12% and the Z score worked out at 1.08.
For `COC(=O)c1ccc([C@@H]2C3=C(O)N(C(C)=O)CC3=Nc3cccc4[nH]cc2c34)cc1` the same measures were 8% and -1.25.
For `C[C@@H](COc1ccccc1)NCCc1nc(C2CC2)no1`, the “% Inhibition” value is given as -6% and the Z score was determined as 0.96.
For `CC1(NC(=O)Nc2cnns2)CN(C(=O)OC(C)(C)C)C1` the same measures were -14% and 2.07.
`CCN1C(=O)Cc2cc(NC(=O)N3CCNC3=O)ccc21`: the “% Inhibition” value is on record as -9% and the Z score is recorded as 1.64.
Regarding `Cc1ccc(-c2cc(C(=O)Nc3ccc(S(=O)(=O)N4CCCC[C@@H]4C)cc3)no2)cc1F`, the “% Inhibition” value was -9% and the Z score is 1.74.
With `Cn1cc(CCNC(=O)N2CCS(=O)(=O)CC2)c2ccc(Cl)cc21`, the “% Inhibition” value is on record as -9% and the Z score is reported as 1.18.
As to `CCCc1n[nH]cc1C(=O)N(C)Cc1ccoc1`, the “% Inhibition” value is -14% and the Z score is on record as 1.33.
For `CN(C)c1ccc(C(N)=NOCc2csc(C3CCCCC3)n2)cc1` the same measures were 2% and -0.23.
Consider `Cc1nc(NS(=O)(=O)[C@H]2CCCOC2)sc1C`, for which the “% Inhibition” value came out at 1% and the Z score is listed as -0.09.
As to `CCNS(=O)(=O)[C@H]1CCN(C(=O)c2cnc(-c3ncccn3)s2)C1`, the “% Inhibition” value worked out at 7% and the Z score is on record as -1.22.
Regarding `Cn1ncnc1NC(=O)NCc1cccnc1N1CCOCC1`, the “% Inhibition” value was -7% and the Z score worked out at 0.91.
For `CC[C@H](NCc1cn(-c2ccccc2F)nc1-c1cc(C)sc1C)c1ccncc1`, the “% Inhibition” value is recorded as -5% and the Z score is on record as 0.76.
For `CCOC(=O)C1CCCN(C(=O)c2cnc(-c3cccc(C)c3)nc2N2CCCCC2C)C1` (stereo not given), the “% Inhibition” value is 4% and the Z score is given as -0.48.
As to `Cc1ncc2ncccc2c1Br`, the “% Inhibition” value is -4% and the Z score is 0.8.
Turning to `Cc1cnn(Cc2cccc(F)c2)c1NC(=O)C(C)N1C[C@@H](C)O[C@@H](C)C1` (stereo not given in full), the “% Inhibition” value was -7% and the Z score is 0.9.
For `Cc1nc(N)nc(C)c1CC(=O)N1CCN(c2ccc3[nH]ncc3c2)C(=O)C1`, the “% Inhibition” value is 0% and the Z score is on record as -0.06.
Turning to `CN1CCN(C(=O)c2cccc(S(C)(=O)=O)c2)c2ccccc2C1`, the “% Inhibition” value worked out at 0% and the Z score is listed as 0.07.
For `Cc1nn(-c2ccccc2)c(Oc2ccccc2F)c1CCC(=O)NCc1ccccc1` the same measures were -16% and 1.99.
In the case of `COc1ccc(CN2CCn3nc(C(=O)NCc4ccccn4)cc3C2=O)cc1`, the “% Inhibition” value amounted to 0% and the Z score was -0.04.
In the case of `COc1ccccc1C(=O)Nc1ccc2nc(NC(=O)c3ccccc3OC)sc2c1`, the “% Inhibition” value was -28% and the Z score amounted to 3.24.
For `CCN(c1ccc2ccccc2c1)S(=O)(=O)c1ccc(C(=O)O)c(F)c1` the same measures were 5% and -0.72.
For `CCCC1CCc2ccccc2N1CC(=O)NCC1CCOC1` (stereo not given), the “% Inhibition” value is on record as -8% and the Z score is 1.61.
For `CC(C)N(C(=O)[C@H]1CCS(=O)(=O)C1)c1ccc(F)cc1Cl`, in that order: -1% and 0.17.
Turning to `Cn1ccc(C(=O)N[C@](C)(C#N)C2CCCCC2)n1`, the “% Inhibition” value is listed as -3% and the Z score came out at 0.37.
As for `CC(=O)N[C@H](CC1CCC1)C(=O)N1CCN(Cc2cn[nH]c2)CC1`, the “% Inhibition” value is reported as -3% and the Z score is reported as 0.35.
Take `CCc1nsc(N2CCCCCC2)n1`: the “% Inhibition” value is recorded as -9% and the Z score was determined as 0.89.
For `Cc1cc(N2CCn3nc(CN4CCc5ccc(F)cc5C4)cc3C2)nc(N)n1` the same measures were -3% and 0.48.
For `Cc1noc(C)c1S(=O)(=O)NCC1(c2ccc([C@H](C)O)s2)CCCC1`, in that order: 9% and -1.29.
For `Cc1noc(C)c1C(=O)Oc1ccc(O[C@H]2CCCCNC2=O)cc1` the same measures were 2% and -0.4.
Take `O=C(NCC1CCCCC1)C1CCN(c2cnc(N3CCCCCC3)nc2)CC1`: the “% Inhibition” value is 4% and the Z score is on record as -0.52.
For `C[C@H]1CCCN1C(=O)c1cc(-c2cnc(N(C)C)nc2)nc2ccccc12`, the “% Inhibition” value is given as -10% and the Z score was 1.38.
Turning to `O=C(Nc1ccc2c(c1)OCO2)c1ccc2[nH]cnc2c1`, the “% Inhibition” value is -2% and the Z score was 0.37.
Turning to `COc1cc2c(cc1CNC1CCN(Cc3cccs3)CC1)OCO2`, the “% Inhibition” value was -8% and the Z score is recorded as 1.26.
For `C=CCN(CCO)C(=O)Nc1ccc(N2CCCC2)c(C)c1`, the “% Inhibition” value is reported as -13% and the Z score was determined as 1.33.
With `COC(=O)N1CCC(CNC(=O)NC2CCOCC2)CC1`, the “% Inhibition” value was determined as 8% and the Z score is -1.09.
As for `O=C(Nc1ccc2c(c1)OCCO2)c1ccc(CN2C(=O)CNC2=O)cc1`, the “% Inhibition” value is recorded as -15% and the Z score was found to be 2.09.
As to `COc1ccc(-c2c(C)nn3c2NC(=O)CCC3=O)cc1S(=O)(=O)Nc1ccccc1C`, the “% Inhibition” value was -2% and the Z score was determined as 0.19.
As to `Cc1ccc(CN(Cc2ccc3c(c2)OCO3)C[C@H](O)COCC(C)C)o1`, the “% Inhibition” value is -15% and the Z score stood at 2.1.
In the case of `COC(C)c1noc(CN2CCCC2C(O)C(F)(F)F)n1` (stereo not given), the “% Inhibition” value is listed as -8% and the Z score was determined as 0.81.
For `COc1cccc(C[C@@H]2C(=O)Nc3ccc(Br)cc32)c1OC1CCCC1`, in that order: 17% and -1.51.
Regarding `CC1OCCC1S(=O)(=O)N[C@H]1C[C@H](c2ccccc2F)C1` (stereo not given in full), the “% Inhibition” value is 3% and the Z score is -0.51.
Take `COc1ccc([N+]2=C3CCCCN3C[C@]2(O)c2ccc(OC(F)F)cc2)cc1`: the “% Inhibition” value is on record as -4% and the Z score came out at 0.52.
On to `Cc1ccsc1C(=O)NCc1ccc(N2CCCC2)cc1`, for which the “% Inhibition” value was -19% and the Z score is on record as 1.71.
Regarding `CCn1nc(-c2ccco2)nc1C[C@H]1C(=O)NCCN1C(C)C`, the “% Inhibition” value is 2% and the Z score is -0.22.
With `COCc1nocc1C(=O)N[C@H]1CCOC(C)(C)C1`, the “% Inhibition” value was 35% and the Z score is -3.99.
For `COC(=O)N[C@@H](C)C(=O)NCc1cnc(C)cc1C` the same measures were -7% and 0.91.
